Source: PubChem BioAssay AID1468 (National Center for Advancing Translational Sciences (NCATS), 2008)
Out of some 280,000 compounds screened, about 1,100 (0.39%) were called active. The shares of active, inactive and inconclusive entries below differ from those in the screen. Calls follow the shape of the dose curve; as a rule, active = well fitted inhibition curve with a large enough effect; inconclusive = small, poorly fitted or top-dose-only effect, or effect the other way; inactive = flat fitted curve, though single readings scatter. No potency is given beside an inconclusive call; the fits are too rough.

Biological target: Microtubule-associated protein tau (Homo sapiens) (UniProt P10636)
Test: qHTS for Inhibitors of Tau Fibril Formation, Fluorescence Polarization; also: nearly all actives have a fitted effect of over 55% in size
Conditions: K18 P301L tau heparin fibrillization, Alexa594 FP, 6 h; series mostly up to 57.7 µM; activity, negative = inhibition: at the top concentration
Procedure, shortened: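 K18 P301L tau (15 uM unlabeled/0.24 uM Alexa 594-labeled, final) + compound + heparin 20 uM final; 100 mM NaOAc pH 7; 6 hr 37 C; ThT 30 uM final added, 1 hr RT; FP ex 555/em 632 nm.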
% is scaled to controls: 0 for no effect and ±100 for the full control effect; potency is read from the fitted curve at half-maximal effect; tags tell the direction and shape of the fitted curve.

Chain of UniProt P10636 (P10636 whole entry, looked up): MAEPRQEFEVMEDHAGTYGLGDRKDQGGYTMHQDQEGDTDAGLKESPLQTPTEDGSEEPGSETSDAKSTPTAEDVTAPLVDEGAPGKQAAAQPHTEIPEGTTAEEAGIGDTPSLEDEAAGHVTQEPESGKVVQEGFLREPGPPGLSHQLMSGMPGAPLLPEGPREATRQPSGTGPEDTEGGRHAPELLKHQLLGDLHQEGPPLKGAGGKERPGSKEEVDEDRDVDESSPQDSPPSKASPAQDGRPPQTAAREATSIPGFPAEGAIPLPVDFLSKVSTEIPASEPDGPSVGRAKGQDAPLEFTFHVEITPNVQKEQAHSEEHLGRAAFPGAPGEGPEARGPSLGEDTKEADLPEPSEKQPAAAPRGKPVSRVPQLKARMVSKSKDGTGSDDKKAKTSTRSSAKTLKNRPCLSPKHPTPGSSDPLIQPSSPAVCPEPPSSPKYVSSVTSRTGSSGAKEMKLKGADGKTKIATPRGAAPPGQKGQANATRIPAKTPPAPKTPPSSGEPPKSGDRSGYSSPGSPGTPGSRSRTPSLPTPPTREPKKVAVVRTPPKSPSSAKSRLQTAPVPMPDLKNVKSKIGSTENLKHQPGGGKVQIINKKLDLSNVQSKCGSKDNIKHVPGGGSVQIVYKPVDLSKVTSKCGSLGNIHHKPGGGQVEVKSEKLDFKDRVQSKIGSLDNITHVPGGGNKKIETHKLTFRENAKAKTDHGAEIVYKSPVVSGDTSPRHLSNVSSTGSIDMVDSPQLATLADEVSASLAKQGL

SMILES | Potency | activity, negative = inhibition
O=C1c2cccc3cccc(c23)C(=O)N1CCc1ccccc1 | inconclusive [inhibitor, partial curve, poor fit] | –
Cn1nccc1-c1cc(Cl)cc(Cl)c1O | inconclusive [inhibitor, single point] | –
CC(=O)c1c(COC(=O)c2ccncc2)nc2ccccc2[n+]1[O-] | inconclusive [inhibitor, single point] | –
COC(=O)c1ccc(NC(=O)CC2C(=O)N(c3ccc(C)cc3)C(=O)N2Cc2ccc(OC)cc2)cc1 (stereo not given) | – | inactive: -12.5%
Clc1ccc(-c2noc(-c3cccnc3N3CCN(c4ccccc4)CC3)n2)cc1 | – | inactive: -0.803%
O=C1NC(=Nc2ccc(F)cc2)CS1 | – | inactive: -4.91%
O=C(CSc1nc2c(cnn2-c2ccc(F)cc2)c(=O)[nH]1)Nc1ccccc1C(F)(F)F | inconclusive [inhibitor, full curve, poor fit] | –
COc1ccc(N/C=C(\C#N)c2nc3ccccc3n2C)c(OC)c1 | inconclusive [activator, partial curve] | –
COc1cccc(CNC(=O)c2cc3ccc4cccnc4c3[nH]2)c1 | inconclusive [inhibitor, single point] | –
N#Cc1c(Nc2ccccc2)s[nH]c1=O | active: 15.8 µM | –
CC[C@H](C)C(=O)O[C@H]1CCC=C2C=C[C@H](C)[C@H](CC[C@@H]3C[C@H](O)CC(=O)O3)C21 (stereo not given in full) | – | inactive: 3.56%
CC[C@@H](c1ccccc1)n1c(=O)n2n(c1=O)[C@H]1[C@H](O)[C@H]3O[C@H]3C(=O)[C@H]1CC2 | – | inactive: -4.51% [at 11.6 µM]
O=C(Nc1ccc2c(c1)OCO2)N1CCN(c2cccc(C(F)(F)F)c2)CC1 | inconclusive [activator, partial curve] | –
O=C(O)/C=C/C(=O)NCCCc1ccccc1 | – | inactive: -3.23%
COc1cc(OC)c(NC(=O)N2CC=C(c3c[nH]c4ccccc34)CC2)cc1Cl | inconclusive [activator, single point] | –
Cc1ccc(-c2cc(C(F)(F)F)n3ncc(-c4ccc(Cl)cc4)c3n2)cc1 | – | inactive: -2.82%
NSc1nc(N)c2nc(-c3ccccc3)c(-c3ccccc3)nc2n1 | inconclusive [inhibitor, partial curve] | –
CCOC(=O)c1cnc2c(Cl)cc(Cl)cc2c1NCCOCCO | inconclusive [inhibitor, full curve, poor fit] | –
COC(=O)c1sccc1NC(=O)Nc1ccc(Cl)c(Cl)c1 | inconclusive [inhibitor, partial curve] | –
CCOC(=O)C1=C(Cc2ccc(F)cc2)C(=O)c2ccccc2C1=O | active: 15.8 µM | –
Cc1cc(F)ccc1NC(=O)CCSc1nc(-c2ccco2)cc(C(F)(F)F)n1 | inconclusive [inhibitor, partial curve] | –
Cc1ccc2nc(N(Cc3cccnc3)C(=O)CCOc3ccccc3)sc2c1 | inconclusive [inhibitor, single point] | –
CC(C)(C)OC(=O)NCCCC[C@H](NC(=O)c1[nH]cnc1C(=O)Nc1ccc(CNC(=O)OC(C)(C)C)cc1)C(=O)OC(C)(C)C | inconclusive [inhibitor, full curve] | –
Cc1ccc(NC(=O)CCc2c(C)nc3ncnn3c2C)cc1 | – | inactive: -10.1%

SMILES | Potency | activity, negative = inhibition
O=C(CSc1nnc(-c2n[nH]c3ccccc23)n1-c1ccccc1)Nc1cccc(Cl)c1 | inconclusive [inhibitor, single point] | –
Cc1ccc(-c2ccc(/C=N/NC(=O)CN3CCCC3)o2)cc1Cl | – | inactive: -5.31%
COc1cc(C)ccc1OCCSc1nc2ccc(NC(C)=O)cc2s1 | active: 25.1 µM | –
CSc1nc(N)nc(SCC(=O)Nc2ccc(Cl)cc2)c1C#N | – | inactive: -1.11%
CC(=O)/C=N/Nc1ccccc1 | – | inactive: -3.97%
N#CC1=C2SCN(Cc3ccccc3)CN2C(=O)CC1c1ccccc1F (stereo not given) | inconclusive [inhibitor, partial curve, poor fit] | –
COc1ccc(N2C(=O)N(Cc3cccc(F)c3)c3ccccc3S2(=O)=O)cc1 | inconclusive [inhibitor, single point] | –
O=C(Nc1nc(-c2ccccn2)cs1)c1ccc2c(c1)OCCO2 | inconclusive [inhibitor, single point] | –
Cc1nn(-c2ccccc2)c(C)c1/C=N/n1c(-c2ccc(C(C)(C)C)cc2)n[nH]c1=S | – | inactive: -1.35%
Cc1nnc(C)n1/N=C/c1cccc(Oc2ccccc2)c1 | inconclusive [activator, single point] | –
CCN1C(=O)c2ccccc2Sc2ccc(NC(=O)c3ccc(C#N)cc3)cc21 | inconclusive [inhibitor, partial curve] | –
Oc1[nH]c2ccccc2c1N=Nc1nc2ccccc2s1 | – | inactive: 6.59%
Cc1ccc(CN2CCN(CC(=O)O)C2=O)cc1 | – | inactive: -1.14%
O=C(Cc1cccs1)Nc1nnc(SCc2ccc(C(F)(F)F)cc2)s1 | – | inactive: 0.72%
O=C(CNS(=O)(=O)c1cccc(Cl)c1)Nc1ccc(-c2nc3ccccc3s2)cc1 | inconclusive [inhibitor, full curve, poor fit] | –
COc1c(Cl)ccc(Cl)c1C(=O)NC(=S)N1CCOCC1 | inconclusive [inhibitor, partial curve] | –
CCOC(=O)c1c(CC(C)C)csc1NC(=O)COC(=O)c1cc(OC)c(OC)cc1[N+](=O)[O-] | inconclusive [inhibitor, partial curve] | –
CC1(C)OC(c2ccccc2)=C/C(=C\C=N\NC(=O)c2ccncc2)O1 | inconclusive [activator, single point] | –
Cc1ccc(S(=O)(=O)NNC(=O)Cc2cccn2C)cc1 | – | inactive: -2.91%
COC1=C(OC)C(=O)c2ccccc2C1=O | inconclusive [inhibitor, partial curve] | –
Cc1ccc2c(c1)N(C(=O)N1CCC(C(=O)NCc3ccccc3F)CC1)CC(C)O2 (stereo not given) | – | inactive: 4.7%
CCOc1ccc(NC(=O)CCSc2nc(-c3ccc4c(c3)OCO4)cc(C(F)(F)F)n2)cc1 | inconclusive [inhibitor, single point] | –
CN1CCC/C1=C1/C(=O)N(c2ccccc2)N=C1NC(=O)Nc1cccc(Cl)c1 | inconclusive [inhibitor, full curve] | –
COc1ccc(-n2c3c(cc(-c4nc(-c5ccc(Cl)cc5)cs4)c2=O)C(=O)CC(C)(C)C3)cc1Cl | – | inactive: -17.7%

SMILES | Potency | activity, negative = inhibition
COc1ccc(-c2cn3c(n2)sc2cc(C(=O)Nc4ccc(C)cc4C)ccc23)cc1 | inconclusive [inhibitor, full curve, poor fit] | –
O=C(N/N=C/c1cn(-c2ccccc2)nc1-c1cc2ccccc2o1)c1c[nH]c2ccccc12 | active: 14.1 µM | –
Cc1noc(C)c1S(=O)(=O)NCCc1csc2nc(-c3ccc(Cl)cc3)nn12 | inconclusive [inhibitor, single point] | –
O=C(COc1ccc(F)cc1)Nc1ccc(Cl)c(-c2nc3ccccc3[nH]2)c1 | active: 28.2 µM | –
CC1(OC(=O)CCc2ccccc2)C(=O)C=C2C=C(c3ccc(C#N)cc3)N(C3CC3)C=C2C1=O (stereo not given) | inconclusive [inhibitor, partial curve, poor fit] | –
Cc1ccc(C(=O)NCC(c2cccnc2)N2CCc3ccccc3C2)cc1C (stereo not given) | inconclusive [inhibitor, single point] | –
CCOc1ccccc1NC(=O)CSC1=C(C#N)C(c2ccco2)C(C(=O)Nc2nc3ccccc3s2)=C(C)N1 (stereo not given) | inconclusive [inhibitor, single point] | –
Cc1nn(-c2ccccc2)c2sc(C(=O)Nc3cccc(Br)c3)cc12 | active: 7.94 µM | –
COc1cccc(C2C3=C(N=c4s/c(=C\c5cccc(O)c5)c(=O)n42)c2ccccc2CC3)c1OC (stereo not given) | active: 22.4 µM | –
CCc1ccc(/C=C2\CN(CC)Cc3c2nc2ccccc2c3C(=O)O)cc1 | inconclusive [inhibitor, single point] | –
c1ccc(-c2ccc(OCCCn3cncn3)cc2)cc1 | – | inactive: -2.67%
O=C(NCC1CCCO1)C1CCN(C(=O)c2ccc(Cl)cc2)CC1 (stereo not given) | – | inactive: 1.81%
COc1ccc(Nc2ncc(C#N)c(N)n2)c(OC)c1 | inconclusive [inhibitor, single point] | –
O=C(COC(=O)c1cccnc1Nc1cccc(C(F)(F)F)c1)NCc1ccc2c(c1)OCO2 | inconclusive [inhibitor, partial curve] | –
Cn1nc(-c2ccccc2)cc1NC(=O)Nc1ccc(C(C)(C)C)cc1 | active: 28.2 µM | –
O=C(N/N=C/c1ccsc1)c1cc(-c2cccs2)nc2ccccc12 | inconclusive [inhibitor, partial curve] | –
Cc1cccc(CN2C(=O)N/C(=C/c3cc(C)n(-c4cc(C)ccn4)c3C)C2=O)c1 | – | inactive: 1.28%
COc1ccc(-c2cc(C(F)(F)F)nc(NCc3ccc(F)cc3)n2)cc1 | inconclusive [inhibitor, partial curve] | –
COc1ccc(NC(=S)Nc2ccc(N)c([N+](=O)[O-])c2)cc1 | – | inactive: 2.62%
COc1ccc(/C=C2\SC(=S)N(N3C(=O)CCC3=O)C2=O)cc1O | inconclusive [inhibitor, partial curve, poor fit] | –
COc1cccc(/C=C(/C(=O)OCC(N)=O)c2ccccc2)c1 | inconclusive [inhibitor, single point] | –
CCOC(=O)c1c(/N=C/N(C)C)sc(/C=N/Nc2ccccc2)c1-c1ccccc1 | inconclusive [activator, partial curve, poor fit] | –
